Measured values: the RNAGym collection of RNA variant scans (doi:10.1093/nar/gkz1192)
The source gives no read counts; variants with many changes may rest on few reads.

B1: CPEB3 Ribozyme (parent)
chain: UAACAGGGGGCCACAGCAGAAGCGUUCACGUCGCAGCCCCUGUCAGAUUCUGGUGAAUCUGCGAAUUCUGCUGUAUAUCUC

Variants of: B1
Assay: self-cleavage, relative activity (ratio to wild type); higher = more cleavage; in vitro, sequencing
How it was run: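 Relative activity compares each variant's cleaved/total read fraction with that of the unmutated ribozyme. To get these fractions, barcoded CPEB3 ribozyme libraries from rounds of error-prone PCR were transcribed with T7 RNA polymerase for 5 hours at 37°C and then given 15 min of DNase I treatment before EDTA was added. The RNAs were reverse transcribed with template switching and sequenced on Illumina, and DNA sequencing linked barcodes to variants. A minimum of 5 reads applied, and three batches were averaged.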

Row | Variant | self-cleavage
1 | UAACAGGGGGCAUCAGCAGGGGCGUUCACGUCGCAGCCCCUGUCAGAUUCCGGUGAGUCCGCGAAUUCUGCUGUAUAUCUC [C12A A13U A20G A21G U51C A57G U60C] | 0.11
2 | UAACAGGGGGUCACAGCAGAAGCGUUCACGUCGCAGCCCCUGCCAGAUUCUGGUGAAUCUGCGAAUUCUGCUGUAUAUCCC [C11U U43C U80C] | 0.07
3 | UAACAGGGGGCAUCAGCAGAGGCAUUCACGUCGCAGCCCCUGUCAGAUUCUGGUGAACCUGCGAAUUCUGCUGUAUAUCUC [C12A A13U A21G G24A U58C] | 0.29
4 | UAACAGGGGGUCACAGCAGAAGCGUUGACGUCGCGGGCCCCGUCUGAUUCUGGUGAAUCUGCGGAUUCUGCUGUAUAUCUC [C11U C27G A35G C37G U41C A45U A64G] | 0.04
5 | UAACAGGGGGUCACAGCAGAAGCGUCCACGUCGCAGCCCCUGUCAGAUUCUGGUGAAUCUGCGAAUUCUGCUGUAUAUCAC [C11U U26C U80A] | 0.26
6 | UAACAGGGGGCAACGGCAGAAGCGUUCACGUAGCAGCCCCUGUCAGAUUCUGGUGGGUCUGCGAAUUCUGCUGUAUAUCUC [C12A A15G C32A A56G A57G] | 0.07
7 | UAACAGGGGGCAGCAGCUGAAGCGUUCACGUCGCAGCCCCUGUCAGAUUCUGGUGAAUCUGCGAACUCUGCUGUAUAUCUC [C12A A13G A18U U66C] | 0.21
8 | UAACAGGGGGUCACAGCAGAAGCGCUCAUGUCGCCGCCCCUGUCAGAUCCUGGUGAAUCUGCGAAUUCUGCAGUAUAUCUC [C11U U25C C29U A35C U49C U72A] | 0.03
9 | UAACAGGGGGUCACAGCAGAAGCGUUCACGUCGCAGCCCCUGUCAGAUUCUGGUGAAUCUGCGAAUACUGCAGCAUACCUC [C11U U67A U72A U74C U78C] | 0.12
10 | UAACAGGGGGUCACAGCAGAAGCGUUCACGUCGCAGCCCCUGUCAGAUUCUGGUGGAUCUGCGAAUUCUGCUGAAUCUCUC [C11U A56G U74A A77C] | 0.49
11 | UAACAGGGGGUCAAAGCAGAAGCGUUCACGUCGCAGCCCCUGUCAGAUCCUGGUGAGUCUGCGAAUUCUGCAGUAUAUCUC [C11U C14A U49C A57G U72A] | 0.13
12 | UAACAGGGGGUCACAGCAGAAGCGCUCACGCCGCAGCCCCAGUCUGAUUCUGGUGAAUCUGCGAAUUCUGCCGUAUAUCUC [C11U U25C U31C U41A A45U U72C] | 0.06
13 | UAACAGGGGGCAACAGCAGAAGCGUUCGCGUCGCAGCCCCUGUCAGAUUCUGGUGAAUCUGCGAAAUCUGCUGUAUAUCUC [C12A A28G U66A] | 0.17
14 | UAACAGGGGGCAGCAGCGGAAGCGUUCACGUCGCAGCCCCCGUCAGAUUCUGGUGAAUCUGCGGACUCUGCUGUAUAUCUC [C12A A13G A18G U41C A64G U66C] | 0.19
15 | UAACAGGGGGUCACAGCAGAAGCGUUCACGUCGCAGCCCCUGUCAGAUCCUGGUGAAUCUGCGAAUUCGGCUGUAUAUCUC [C11U U49C U69G] | 0.07
16 | UAACAGGGGGUCACAGCAGAAGCGUUCACGUCGCAGCCCCCGUCAGAUUCUGGUGAAUCUGCGAAUUCUGCUGUACAUCUC [C11U U41C U76C] | 0.71
17 | UAACAGGGGGUCACAGCAGAAGCGCUCACGUCGCAGCCCCUGUCAGAUUCUGGUGAGUCUGCGAAUACUGCUGUAUAUCUC [C11U U25C A57G U67A] | 0.04

Row | Variant | self-cleavage
18 | UAACAGGGGGUCACAGCAGAAGCGUUCACGACGCAGCCCCUGUCAGAUUCUGGUGAAUCUGCGAAUUCUGCUGUAAGUCUC [C11U U31A U76A A77G] | 0.13
19 | UAACAGGGGGUCACAGCAGAAGCGUUCACGUCGCAGCCCCUGUCAGAUUCUGGAGAAUCUGCGAAUUCUGCUGUAUAUUUC [C11U U54A C79U] | 0.57
20 | UAACAGGGGGUCACAGCAGAAGCGUUCACGUCGCAGCCCCUGUCAGAUUCUGGUGAAUCUGUGAAUUCUGCUGUACAUCUC [C11U C62U U76C] | 0.52
21 | UAACAGGGGGUCACAGCAGAAGCGUUCACGACGCAGCCCCUGUCAGAUUCUGUUGAAUCUGCGAAUCCUGCUGUAUAUCCC [C11U U31A G53U U67C U80C] | 0.07
22 | UAACAGGGGGCAACAGCAGAAGCGUUCACGUCGCGGCCCCUGUCAGAUUCUGGCGAAUCUACGAAUACUGCUGUAUAUAUC [C12A A35G U54C G61A U67A C79A] | 0.25
23 | UAACAGGGGGCAACAGCAGAAGCGUUCACGUCGCUGCCCCUGCCAGAUUCUGGUGAAUCUGCGAAUUCUGCUGUAUAUCAC [C12A A35U U43C U80A] | 1.24
24 | UAACAGGGGGCAGCAGCAGAAGCGUUCACGUCGCAGCCCUUGUCAGAUUCUGGUGAAUCUGCGAAUUCUGCUGUAUACCUC [C12A A13G C40U U78C] | 0.28
25 | UAACAGGGGGCAGCAGCAGAAGCGAUCACGUCGCAGCCCCUGUCAGAUUCUGGUGAAUCUGCGAAUUCUGCUGUAUAUCUC [C12A A13G U25A] | 0.43
26 | UAACAGGGGGCAUCAGCAGAAGCGUUCUCGUCGCAGCCCCUGUCAGAUUCUGGUGAAUCUGCGAAUUCUGCUGUAUAUCUC [C12A A13U A28U] | 0.93
27 | UAACAGGGGGCAACAGCAGAAGCGUUCACGUCGCUGCCCCUGCCAGAUUCUGGUGAAUCUGCGAAUCCUGCUGUAUAUCUC [C12A A35U U43C U67C] | 0.07
28 | UAACAGGGGGUCACAGCAGAAGCGUUCACAUCGCAGCCCCUGUCAGAUUCUGGUGAAUCUGCGAAUUCUGCCGUAUAUCAC [C11U G30A U72C U80A] | 0.05
29 | UAACAGGGGGUCACAGCAGAAGCGUACACGUCGCAGCCCCUGGCAGAUUCUGGUGAAUCUGCGAAUUCUGCUGUAUACCUC [C11U U26A U43G U78C] | 0.17
30 | UAACAGGGGGUCACAGCAGAAGCGUACACGUCGCAGCCCCUGUCAGAUCCUGCUGAAUCUGCGAAUUCUGCUGAAUAUCUC [C11U U26A U49C G53C U74A] | 0.14
31 | UAACAGGGGGUCACAGCAGAAGCGUUCACGUCGCAGCCCCUGUCAGAUUCUGGUGAAUCUGAGAAUUCUGCCGUAUAUCUC [C11U C62A U72C] | 0.19
32 | UAACAGGGGGUCACAGCAGAAGCGCCCACGUCGCAGCCCCUGUCAGAUUCUGGUGAAUCUGCGAAUUCUGGUGUAUAUCUC [C11U U25C U26C C71G] | 0.04
33 | UAACAGGGGGCACCAGCAGAAGCGUACACGUCGCUGCCCCUGUCUGAUUCUGGUAAAUCUGCGAAUUCUGCUGUAUAUCUC [C12A A13C U26A A35U A45U G55A] | 0.48
34 | UAACAGGGGGUCACAGCAGAAGCGCUCACGACGUAGCCCCUGUCAGAUUCUGGCGAAUCUGCGAAUUCGGCUGUAUAUCUC [C11U U25C U31A C34U U54C U69G] | 0.04
